Test results taken from publication PMC4336329 (PLoS ONE, 2015).
Hit rate of the full screen: of about 310,000 compounds, about 14,000 (4.5%) showed an effect of 50% or more. Effects have a minus sign here. The list shows a part of the results.
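Also: peak tail current of the secondary pulse compared with the same well before compound.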

These molecules were tested against human ether-à-go-go-related gene (hERG) potassium channel (human, UniProt Q12809) (assay: primary screen, population patch clamp on CHO cells stably expressing hERG).
human ether-à-go-go-related gene (hERG) potassium channel, sequence (Q12809 whole entry, looked up): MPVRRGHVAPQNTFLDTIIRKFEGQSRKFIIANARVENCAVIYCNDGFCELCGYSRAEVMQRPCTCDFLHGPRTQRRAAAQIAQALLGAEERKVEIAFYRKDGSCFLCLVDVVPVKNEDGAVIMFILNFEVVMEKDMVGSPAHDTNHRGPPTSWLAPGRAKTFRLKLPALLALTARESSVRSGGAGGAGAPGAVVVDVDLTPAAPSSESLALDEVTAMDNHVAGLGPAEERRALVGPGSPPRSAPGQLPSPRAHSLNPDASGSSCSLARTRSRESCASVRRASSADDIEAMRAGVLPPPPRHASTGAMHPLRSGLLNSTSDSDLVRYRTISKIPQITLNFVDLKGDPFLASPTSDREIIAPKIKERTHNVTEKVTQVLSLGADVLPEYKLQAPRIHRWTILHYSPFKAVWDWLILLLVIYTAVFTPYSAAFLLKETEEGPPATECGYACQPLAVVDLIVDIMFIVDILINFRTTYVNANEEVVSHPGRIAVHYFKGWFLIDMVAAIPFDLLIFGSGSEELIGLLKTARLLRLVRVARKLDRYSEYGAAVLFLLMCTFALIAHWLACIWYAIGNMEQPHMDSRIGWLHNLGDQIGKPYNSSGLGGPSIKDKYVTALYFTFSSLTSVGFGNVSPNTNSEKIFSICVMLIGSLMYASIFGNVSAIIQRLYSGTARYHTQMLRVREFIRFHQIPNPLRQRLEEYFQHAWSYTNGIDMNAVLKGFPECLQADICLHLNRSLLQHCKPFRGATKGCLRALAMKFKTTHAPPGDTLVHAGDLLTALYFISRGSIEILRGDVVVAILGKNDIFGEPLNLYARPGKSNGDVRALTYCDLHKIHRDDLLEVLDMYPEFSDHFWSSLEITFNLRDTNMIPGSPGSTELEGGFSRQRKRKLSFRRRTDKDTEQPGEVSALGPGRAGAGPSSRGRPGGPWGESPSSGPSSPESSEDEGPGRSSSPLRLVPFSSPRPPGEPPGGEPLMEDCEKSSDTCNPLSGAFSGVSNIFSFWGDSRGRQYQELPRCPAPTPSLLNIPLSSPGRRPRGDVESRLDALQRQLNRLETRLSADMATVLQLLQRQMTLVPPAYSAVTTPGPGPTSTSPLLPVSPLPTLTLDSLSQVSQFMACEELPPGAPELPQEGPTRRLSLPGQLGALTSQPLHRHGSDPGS
`CCCn1cc(C(=O)OCC)c(=O)c2cc(F)c(F)cc21` was tested, and the “hERG current change (%, negative = inhibition) at 10uM” value was 2.11%.
With `CCCCc1n[nH]c2c1/C(=N/OCC)CC(C)(C)C2` the “hERG current change (%, negative = inhibition) at 10uM” value was 11.7%.
In the case of `CCOC(=O)N1CCN(C(=O)c2cccc(S(=O)(=O)Nc3ccccc3Cl)c2)CC1`, the “hERG current change (%, negative = inhibition) at 10uM” value is reported as -1.78%.
With `CC(=O)NS(=O)(=O)c1ccc(NC(=O)CSc2ccc(Cl)cc2)cc1` the “hERG current change (%, negative = inhibition) at 10uM” value was 6.91%.
`O=C1N(Cc2cccc(Cl)c2)C[C@@H]2C[C@@H](c3ccsc3)N3CCC[C@@]123` was tested, and the “hERG current change (%, negative = inhibition) at 10uM” value was -60.1%.
In the case of `C=CC1=C(C(=O)O)N2C(=O)[C@@H](NC(=O)/C(=N/OCC(=O)O)c3csc(N)n3)[C@H]2SC1.O`, the “hERG current change (%, negative = inhibition) at 10uM” value is reported as 18.9%.
`c1ccc(-n2ncc3c2ncn2cnnc32)cc1` was tested, and the “hERG current change (%, negative = inhibition) at 10uM” value was 9.5%.
For `c1ccc(-c2nnnc3ccccc23)cc1`, the “hERG current change (%, negative = inhibition) at 10uM” value was 10.6%.
For `CCCN1CCC(=O)N([C@H](CSc2ccc(Br)cc2)c2ccccc2)CC1`, the “hERG current change (%, negative = inhibition) at 10uM” value was -76.2%.
In the case of `Cc1nc(SCC(=O)Nc2ccc(C)c(F)c2)c2oc3ccccc3c2n1`, the “hERG current change (%, negative = inhibition) at 10uM” value is reported as 4.4%.
For `C=CCn1c(=NC(=O)c2cccc(N3C(=O)CCC3=O)c2)sc2cccc(OC)c21`, the “hERG current change (%, negative = inhibition) at 10uM” value was -5.04%.
In the case of `Cl.O=C(COc1ccc(F)cc1)NCCN1CCCC1`, the “hERG current change (%, negative = inhibition) at 10uM” value is reported as -11.2%.
With `O=C(CNC(=O)c1sc2ccccc2c1Cl)Nc1ccccc1F` the “hERG current change (%, negative = inhibition) at 10uM” value was -6.72%.
In the case of `CC1CCN(Cc2cc(=O)oc3cc4c(cc23)CCCC4)CC1`, the “hERG current change (%, negative = inhibition) at 10uM” value is reported as -6.92%.
`COc1ccc(-c2nc3ncccc3n2O)cc1` was tested, and the “hERG current change (%, negative = inhibition) at 10uM” value was 22.1%.
With `Cl.N=c1n(Cc2ccc(Cl)cc2)c2ccccc2n1CC(O)c1ccco1` (stereo not drawn) the “hERG current change (%, negative = inhibition) at 10uM” value was -64.1%.
In the case of `COCCN(C(=O)COC(=O)c1ccc(C)o1)c1c(N)n(Cc2ccccc2)c(=O)[nH]c1=O`, the “hERG current change (%, negative = inhibition) at 10uM” value is reported as 17.2%.
`COc1ccc(N=C(N)N=C(N)N)c(OC)c1` was tested, and the “hERG current change (%, negative = inhibition) at 10uM” value was 4.57%.
`COc1ccc(CC(=O)N2CCC(n3nccc3NC(=O)C3CC3)CC2)cc1` was tested, and the “hERG current change (%, negative = inhibition) at 10uM” value was 13.7%.
With `C(=N\Nc1nc2ccccc2[nH]1)/c1cccc2cccnc12` the “hERG current change (%, negative = inhibition) at 10uM” value was 1.65%.
`CN(C)c1ccc(Nc2nc(N)c3ccccc3n2)cc1.Cl` was tested, and the “hERG current change (%, negative = inhibition) at 10uM” value was -34.8%.
With `COc1ccccc1NC(=O)C1CCN(C(=O)C2CC(=O)N(c3ccc(C)cc3)C2)CC1` (stereo not drawn) the “hERG current change (%, negative = inhibition) at 10uM” value was -9.15%.
For `Cc1ccc(C(C(=O)NC2CCCCC2)N2CCCC2)cc1` (stereo not drawn), the “hERG current change (%, negative = inhibition) at 10uM” value was -11.5%.
With `O=C(c1cc(-c2cccc(O)c2)on1)N1CCc2ccccc2C1` the “hERG current change (%, negative = inhibition) at 10uM” value was -25.1%.
For `COC(=O)c1ccc(CN2CCN(CC=C(C)C)C(CCO)C2)cc1` (stereo not drawn), the “hERG current change (%, negative = inhibition) at 10uM” value was -7.32%.
With `O=C1CC(=O)CC(c2ccccc2)C1` the “hERG current change (%, negative = inhibition) at 10uM” value was 2.5%.
`CCN(C(=O)c1cn(C)c(=O)c2ccccc12)c1ccccc1F` was tested, and the “hERG current change (%, negative = inhibition) at 10uM” value was 5.71%.
With `O=C(NCc1cccnc1)NC1(C(F)(F)F)Oc2ccccc2O1` the “hERG current change (%, negative = inhibition) at 10uM” value was -9.07%.
For `COc1ccc(CNC(=O)/C=C/C(=O)O)cc1OC`, the “hERG current change (%, negative = inhibition) at 10uM” value was -8.65%.
`O=C(NCc1cccc(C(F)(F)F)c1)C1CC(c2c(Cl)cccc2Cl)=NO1` (stereo not drawn) was tested, and the “hERG current change (%, negative = inhibition) at 10uM” value was -7.02%.
In the case of `COc1cccc(N2CCN(c3ccc4nnc(CCC(=O)Nc5ccccc5OC)n4n3)CC2)c1`, the “hERG current change (%, negative = inhibition) at 10uM” value is reported as -62.6%.
`COc1ccc(-c2nn(CCC#N)cc2C(=O)NCc2ccccc2)cc1[N+](=O)[O-]` was tested, and the “hERG current change (%, negative = inhibition) at 10uM” value was -59.7%.
With `O=C(COC(=O)c1ccccc1Br)NC1CCCC1` the “hERG current change (%, negative = inhibition) at 10uM” value was 7.33%.
`CCOC(=O)CSc1n[nH]c(NC(=O)c2ccccc2)n1` was tested, and the “hERG current change (%, negative = inhibition) at 10uM” value was 4.71%.
In the case of `CC(=O)Nc1ccc(C(=O)OCC(=O)c2cccc([N+](=O)[O-])c2)cc1`, the “hERG current change (%, negative = inhibition) at 10uM” value is reported as 4.66%.
In the case of `CCC(C(=O)NCc1ccc(F)cc1)n1nc(C)n2c(cc3occc32)c1=O` (stereo not drawn), the “hERG current change (%, negative = inhibition) at 10uM” value is reported as 7.09%.
With `Cc1cc(CNC(=S)Nc2ccc(Br)cc2Cl)nn1C` the “hERG current change (%, negative = inhibition) at 10uM” value was -12.9%.
With `O=C(NCCc1ccccc1)/C(=C\c1ccccc1)NC(=O)c1ccco1` the “hERG current change (%, negative = inhibition) at 10uM” value was -21.4%.
For `COc1ccc(-c2nnc(N(C)C(=O)c3ccco3)s2)cc1OC`, the “hERG current change (%, negative = inhibition) at 10uM” value was 10.6%.
With `Cn1ccc(-c2cc(C(=O)O)c3ccccc3n2)n1` the “hERG current change (%, negative = inhibition) at 10uM” value was 20.6%.
`C[C@H](NC(=O)c1ccccc1Cl)C(=O)OCCOc1ccc(Cl)cc1` was tested, and the “hERG current change (%, negative = inhibition) at 10uM” value was -1.62%.
With `Nc1nc(-c2ccco2)cs1` the “hERG current change (%, negative = inhibition) at 10uM” value was 9.88%.
`Cn1c(CCNS(=O)(=O)c2ccccc2)nc2cc([N+](=O)[O-])ccc21` was tested, and the “hERG current change (%, negative = inhibition) at 10uM” value was -13.6%.
`O=C1C(Nc2ccccc2)=CC(c2ccc(O)cc2)N1c1ccccc1` (stereo not drawn) was tested, and the “hERG current change (%, negative = inhibition) at 10uM” value was 24.5%.
`O=C(CSc1nnc(CNc2ccc(F)cc2)n1Cc1ccco1)NC1CC1` was tested, and the “hERG current change (%, negative = inhibition) at 10uM” value was -14.4%.
With `O=C1Nc2cccnc2Sc2ccccc21` the “hERG current change (%, negative = inhibition) at 10uM” value was 8.7%.
In the case of `Cc1cc(=O)oc2cc(OCC(=O)Nc3ccc(CN4CCOCC4)cc3)ccc12`, the “hERG current change (%, negative = inhibition) at 10uM” value is reported as 3.15%.
`O=C(Nc1cccc(F)c1)c1cccnc1` was tested, and the “hERG current change (%, negative = inhibition) at 10uM” value was 3.96%.
For `COc1ccc(NC(=O)CSc2nccn2-c2cccc(OC)c2)cc1`, the “hERG current change (%, negative = inhibition) at 10uM” value was 11.4%.
For `CNC(=O)Nc1ccc(C(=O)N/N=C\C23CC[C@@H](O)CC2(O)CC[C@@H]2[C@@H]3CCC3(C)C(C4=CC(=O)OC4)CCC23O)cc1` (stereo partly drawn), the “hERG current change (%, negative = inhibition) at 10uM” value was 11.9%.
With `CCN1CCN(c2ccc(S(=O)(=O)N3CCOCC3)cc2NC(=O)CCC(C)C)CC1` the “hERG current change (%, negative = inhibition) at 10uM” value was -26.3%.
`Cc1ccc2oc(/N=C(\N)NC(=O)C3CC3)nc2c1` was tested, and the “hERG current change (%, negative = inhibition) at 10uM” value was 5.12%.
`O=C(c1ccc(N2CCN(C(=O)c3ccc(F)c(F)c3)CC2)cc1)c1cccc(F)c1` was tested, and the “hERG current change (%, negative = inhibition) at 10uM” value was -16.7%.
For `CC[n+]1c(P(=O)([O-])c2ccccc2)[nH]c2ccccc21`, the “hERG current change (%, negative = inhibition) at 10uM” value was -13%.
For `O=C(Cn1ncn2c(cc3ccccc32)c1=O)NCCc1cccs1`, the “hERG current change (%, negative = inhibition) at 10uM” value was 8%.
`Cc1cc(C)c(NC(=O)COC(=O)CSc2ccc(Br)cc2C)c(C)c1` was tested, and the “hERG current change (%, negative = inhibition) at 10uM” value was 7.14%.
With `COc1ccc(OC)c(N(CC(=O)NCc2cccnc2)S(C)(=O)=O)c1` the “hERG current change (%, negative = inhibition) at 10uM” value was 9.95%.
